# According to the supplement of paper PMC10037445:
# Whole data set: some 2,900 compounds, median “NF-kB SEAP reporter activity, fold change vs agonist alone” near 0.99, cut for the highest 2% near 2.6. The list shows a part of the results.
# Key:
# [1] = test system: RAW-Dual; assay: NF-kB SEAP reporter activity, fold change vs agonist alone; cytotoxicity flag (confluency mask): not cytotoxic; higher = enhanced NF-kB activity
# Summary of the method: (§1)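 RAW-Dual macrophages were seeded in DMEM at 50,000 cells/well in 384-well plates, given 50 nL of library stock by pin tool, and given a PRR agonist 1 h later. Plates were held at 37 °C, 5% CO2 for 20 hours, after which supernatant was read for IRF by QuantiLuc luminescence and for NF-κB by QuantiBlue absorbance at 620 nm. Reporter activity is expressed as fold change over wells that received agonist alone. A well was called cytotoxic when IncuCyte confluency fell below 70% of agonist controls in both mask sets.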
# [2] = test system: RAW-Dual; assay: NF-kB SEAP reporter activity, fold change vs agonist alone; higher = enhanced NF-kB activity
# Summary of the method: as §1
# [3] = test system: RAW-Dual; assay: NF-kB SEAP reporter activity, fold change vs agonist alone; cytotoxicity flag (confluency mask): cytotoxic (confluency <70% of control); higher = enhanced NF-kB activity
# Summary of the method: as §1
# [4] = agonist: ODN 1826 (TLR9) 0.5 ug/mL
# [5] = agonist: Pam2CSK4 (TLR2/6) 0.1 ug/mL
# [6] = agonist: Pam3CSK4 (TLR2/1) 0.1 ug/mL
# [7] = library stock concentration (final ~1000-fold dilution): 10 mM, cytotoxicity flag (confluency mask): not cytotoxic, agonist: MPLA (TLR4) […]
# [8] = library stock concentration (final ~1000-fold dilution): 10 mM, cytotoxicity flag (confluency mask): not cytotoxic, agonist: Imiquimod (TLR7) […]
smiles,measurement,setting,value
Cc1ccc(C(=O)c2ccc(CC(=O)O)n2C)cc1 (library stock concentration (final ~1000-fold dilution): 10 mM),NF-kB SEAP reporter activity,[1]; agonist: LPS (TLR4) 0.1 ug/mL,0.948
same,NF-kB SEAP reporter activity,[1]; [4],0.987
same,NF-kB SEAP reporter activity,[1]; [5],1.08
same,NF-kB SEAP reporter activity,[1]; [6],1.07
Cc1ccc(C(=O)c2ccc(CC(=O)O)n2C)cc1,NF-kB SEAP reporter activity,[2]; [7],1.07
CC(C)(C)C(=O)Nc1ccc2c(c1)C(=O)C(=O)c1ccccc1-2,NF-kB SEAP reporter activity,[2]; [8],0.149
same,NF-kB SEAP reporter activity,[2]; [7],0.156
CC(C)(C)C(=O)Nc1ccc2c(c1)C(=O)C(=O)c1ccccc1-2 (library stock concentration (final ~1000-fold dilution): 10 mM),NF-kB SEAP reporter activity,[1]; agonist: LPS (TLR4) 0.1 ug/mL,0.226
same,NF-kB SEAP reporter activity,[1]; [4],0.746
same,NF-kB SEAP reporter activity,[1]; [5],0.0627
same,NF-kB SEAP reporter activity,[1]; [6],0.155
COC(=O)C1=C(C)NC(C)=C(C(=O)OCCN(C)Cc2ccccc2)C1c1cccc([N+](=O)[O-])c1.Cl (centres undefined),NF-kB SEAP reporter activity,[2]; [8],0.66
same,NF-kB SEAP reporter activity,[2]; [7],0.838
COC(=O)C1=C(C)NC(C)=C(C(=O)OCCN(C)Cc2ccccc2)C1c1cccc([N+](=O)[O-])c1.Cl (centres undefined) (library stock concentration (final ~1000-fold dilution): 10 mM),NF-kB SEAP reporter activity,[1]; agonist: LPS (TLR4) 0.1 ug/mL,0.765
same,NF-kB SEAP reporter activity,[1]; [4],0.415
same,NF-kB SEAP reporter activity,[1]; [5],0.579
same,NF-kB SEAP reporter activity,[1]; [6],0.442
Nc1c(CC(=O)O)cccc1C(=O)c1ccccc1,NF-kB SEAP reporter activity,[2]; [8],0.882
same,NF-kB SEAP reporter activity,[2]; [7],1.04
Nc1c(CC(=O)O)cccc1C(=O)c1ccccc1 (library stock concentration (final ~1000-fold dilution): 10 mM),NF-kB SEAP reporter activity,[1]; agonist: LPS (TLR4) 0.1 ug/mL,1.07
same,NF-kB SEAP reporter activity,[1]; [4],0.974
same,NF-kB SEAP reporter activity,[1]; [5],1.12
same,NF-kB SEAP reporter activity,[1]; [6],1.21
COc1cccc(C=Nc2cccc(C(=O)O)c2C)c1O,NF-kB SEAP reporter activity,"[2]; library stock concentration (final ~1000-fold dilution): 1 mM, cytotoxicity flag (confluency mask): not cytotoxic, agonist: Imiquimod (TLR7) […]",1.42
same,NF-kB SEAP reporter activity,"[2]; library stock concentration (final ~1000-fold dilution): 1 mM, cytotoxicity flag (confluency mask): not cytotoxic, agonist: MPLA (TLR4) […]",1.06
COc1cccc(C=Nc2cccc(C(=O)O)c2C)c1O (library stock concentration (final ~1000-fold dilution): 1 mM),NF-kB SEAP reporter activity,[1]; agonist: LPS (TLR4) 0.1 ug/mL,1.08
same,NF-kB SEAP reporter activity,[1]; [4],1.3
same,NF-kB SEAP reporter activity,[1]; [5],1.16
same,NF-kB SEAP reporter activity,[1]; [6],1.15
Nc1nc(NC2CC2)c2ncn(C3C=CC(CO)C3)c2n1 (centres undefined) (library stock concentration (final ~1000-fold dilution): 10 mM),NF-kB SEAP reporter activity,[1]; agonist: LPS (TLR4) 0.1 ug/mL,1.05
same,NF-kB SEAP reporter activity,[1]; [4],1.07
same,NF-kB SEAP reporter activity,[1]; [5],1.35
same,NF-kB SEAP reporter activity,[1]; [6],1.07
Nc1nc(NC2CC2)c2ncn(C3C=CC(CO)C3)c2n1 (centres undefined),NF-kB SEAP reporter activity,[2]; [7],1.16
N=C1NC(=O)/C(=C/c2ccc(O)cc2)S1 (library stock concentration (final ~1000-fold dilution): 10 mM),NF-kB SEAP reporter activity,[1]; agonist: LPS (TLR4) 0.1 ug/mL,0.909
same,NF-kB SEAP reporter activity,[1]; [4],0.678
same,NF-kB SEAP reporter activity,[1]; [5],1.06
same,NF-kB SEAP reporter activity,[1]; [6],1.42
N=C1NC(=O)/C(=C/c2ccc(O)cc2)S1,NF-kB SEAP reporter activity,[2]; [8],0.973
same,NF-kB SEAP reporter activity,[2]; [7],0.96
CCCc1cc(C)[nH]c(=O)c1CNC(=O)c1cc(-c2ccc(N3CCN(C(C)C)CC3)nc2)cc2c1cnn2C(C)C,NF-kB SEAP reporter activity,[2]; [8],1.5
same,NF-kB SEAP reporter activity,[2]; [7],2.36
CCCc1cc(C)[nH]c(=O)c1CNC(=O)c1cc(-c2ccc(N3CCN(C(C)C)CC3)nc2)cc2c1cnn2C(C)C (library stock concentration (final ~1000-fold dilution): 10 mM),NF-kB SEAP reporter activity,[1]; agonist: LPS (TLR4) 0.1 ug/mL,1.02
same,NF-kB SEAP reporter activity,[1]; [4],0.24
same,NF-kB SEAP reporter activity,[1]; [5],1.19
same,NF-kB SEAP reporter activity,[1]; [6],1.87
CCC(C)CCCCC(=O)NC(CCN)C(=O)NC(C(=O)NC(CCN)C(=O)NC1CCNC(=O)C(C(C)O)NC(=O)C(CCN)NC(=O)C(CCN)NC(=O)C(CC(C)C)NC(=O)C(Cc2ccccc2)NC(=O)C(CCN)NC1=O)C(C)O (centres undefined) (library stock concentration (final ~1000-fold dilution): 15 uM),NF-kB SEAP reporter activity,[1]; agonist: LPS (TLR4) 0.1 ug/mL,0.273
same,NF-kB SEAP reporter activity,[1]; [4],1.16
same,NF-kB SEAP reporter activity,[1]; [5],0.936
same,NF-kB SEAP reporter activity,[1]; [6],0.877
CCC(C)CCCCC(=O)NC(CCN)C(=O)NC(C(=O)NC(CCN)C(=O)NC1CCNC(=O)C(C(C)O)NC(=O)C(CCN)NC(=O)C(CCN)NC(=O)C(CC(C)C)NC(=O)C(Cc2ccccc2)NC(=O)C(CCN)NC1=O)C(C)O (centres undefined),NF-kB SEAP reporter activity,"[2]; library stock concentration (final ~1000-fold dilution): 15 uM, cytotoxicity flag (confluency mask): not cytotoxic, agonist: Imiquimod (TLR7) […]",0.984
same,NF-kB SEAP reporter activity,"[2]; library stock concentration (final ~1000-fold dilution): 15 uM, cytotoxicity flag (confluency mask): not cytotoxic, agonist: MPLA (TLR4) […]",1.15
CCCC(NC1CCc2cc(F)cc(F)c2C1)C(=O)Nc1cn(C(C)(C)CNCC(C)(C)C)cn1 (centres undefined) (library stock concentration (final ~1000-fold dilution): 10 mM),NF-kB SEAP reporter activity,[1]; agonist: LPS (TLR4) 0.1 ug/mL,0.636
same,NF-kB SEAP reporter activity,[1]; [4],0.316
same,NF-kB SEAP reporter activity,[1]; [5],0.723
same,NF-kB SEAP reporter activity,[1]; [6],0.298
CCCC(NC1CCc2cc(F)cc(F)c2C1)C(=O)Nc1cn(C(C)(C)CNCC(C)(C)C)cn1 (centres undefined),NF-kB SEAP reporter activity,[2]; [8],0.373
same,NF-kB SEAP reporter activity,[2]; [7],0.669
NC(=O)c1ccc(N(C(N)=O)c2c(F)cccc2F)nc1-c1ccc(F)cc1F (library stock concentration (final ~1000-fold dilution): 10 mM),NF-kB SEAP reporter activity,[1]; agonist: LPS (TLR4) 0.1 ug/mL,1.06
same,NF-kB SEAP reporter activity,[1]; [4],0.695
same,NF-kB SEAP reporter activity,[1]; [5],0.455
same,NF-kB SEAP reporter activity,[1]; [6],0.465
NC(=O)c1ccc(N(C(N)=O)c2c(F)cccc2F)nc1-c1ccc(F)cc1F,NF-kB SEAP reporter activity,[2]; [8],0.688
same,NF-kB SEAP reporter activity,[2]; [7],1.44
COc1c(C)c(C(=O)c2ccc(N)c(C(=O)O)c2)n2ccccc12 (library stock concentration (final ~1000-fold dilution): 10 mM),NF-kB SEAP reporter activity,[1]; agonist: LPS (TLR4) 0.1 ug/mL,0.894
same,NF-kB SEAP reporter activity,[1]; [4],1.08
same,NF-kB SEAP reporter activity,[1]; [5],1.21
same,NF-kB SEAP reporter activity,[1]; [6],1.35
COc1c(C)c(C(=O)c2ccc(N)c(C(=O)O)c2)n2ccccc12,NF-kB SEAP reporter activity,[2]; [8],0.962
same,NF-kB SEAP reporter activity,[2]; [7],1.05
Cc1c(C(=O)Nc2ccc(Oc3ccnc4[nH]cc(-c5ccccc5)c34)c(F)c2)c(=O)n(-c2ccc(F)cc2)n1C,NF-kB SEAP reporter activity,[2]; [8],0.253
same,NF-kB SEAP reporter activity,[2]; [7],0.315
Cc1c(C(=O)Nc2ccc(Oc3ccnc4[nH]cc(-c5ccccc5)c34)c(F)c2)c(=O)n(-c2ccc(F)cc2)n1C (library stock concentration (final ~1000-fold dilution): 10 mM),NF-kB SEAP reporter activity,[1]; agonist: LPS (TLR4) 0.1 ug/mL,0.63
same,NF-kB SEAP reporter activity,[1]; [4],0.819
same,NF-kB SEAP reporter activity,[1]; [5],0.14
same,NF-kB SEAP reporter activity,[1]; [6],0.149
O=C1O[C@H]([C@@H](O)CO)C(O)=C1OP(=O)(O)O (library stock concentration (final ~1000-fold dilution): 10 mM water),NF-kB SEAP reporter activity,[1]; agonist: LPS (TLR4) 0.1 ug/mL,1.23
same,NF-kB SEAP reporter activity,[1]; [4],1.19
same,NF-kB SEAP reporter activity,[1]; [5],1.16
same,NF-kB SEAP reporter activity,[1]; [6],1.21
O=C1O[C@H]([C@@H](O)CO)C(O)=C1OP(=O)(O)O,NF-kB SEAP reporter activity,"[2]; library stock concentration (final ~1000-fold dilution): 10 mM water, cytotoxicity flag (confluency mask): not cytotoxic, agonist: Imiquimod (TLR7) […]",0.995
same,NF-kB SEAP reporter activity,"[2]; library stock concentration (final ~1000-fold dilution): 10 mM water, cytotoxicity flag (confluency mask): not cytotoxic, agonist: MPLA (TLR4) […]",1.02
COc1nccc(-c2c(-c3ccc(F)cc3)ncn2C2CCC(O)CC2)n1 (centres undefined),NF-kB SEAP reporter activity,[2]; [8],0.875
same,NF-kB SEAP reporter activity,[2]; [7],1.36
COc1nccc(-c2c(-c3ccc(F)cc3)ncn2C2CCC(O)CC2)n1 (centres undefined) (library stock concentration (final ~1000-fold dilution): 10 mM),NF-kB SEAP reporter activity,[1]; agonist: LPS (TLR4) 0.1 ug/mL,1.81
same,NF-kB SEAP reporter activity,[1]; [4],0.861
same,NF-kB SEAP reporter activity,[1]; [5],0.565
same,NF-kB SEAP reporter activity,[1]; [6],0.724
CCC1(c2cnc[nH]2)Cc2ccccc2C1 (library stock concentration (final ~1000-fold dilution): 10 mM),NF-kB SEAP reporter activity,[1]; agonist: LPS (TLR4) 0.1 ug/mL,0.919
same,NF-kB SEAP reporter activity,[1]; [4],0.802
same,NF-kB SEAP reporter activity,[1]; [5],0.988
same,NF-kB SEAP reporter activity,[1]; [6],0.782
CCC1(c2cnc[nH]2)Cc2ccccc2C1,NF-kB SEAP reporter activity,[2]; [7],0.967
CC(N)c1ccc(C(=O)Nc2ccnc3[nH]ccc23)cc1.Cl.Cl (centres undefined),NF-kB SEAP reporter activity,"[2]; library stock concentration (final ~1000-fold dilution): 10 mM, cytotoxicity flag (confluency mask): cytotoxic (confluency <70% of control), agonist: Imiquimod (TLR7) […]",0.387
same,NF-kB SEAP reporter activity,"[2]; library stock concentration (final ~1000-fold dilution): 10 mM, cytotoxicity flag (confluency mask): cytotoxic (confluency <70% of control), agonist: MPLA (TLR4) […]",0.348
CC(N)c1ccc(C(=O)Nc2ccnc3[nH]ccc23)cc1.Cl.Cl (centres undefined) (library stock concentration (final ~1000-fold dilution): 10 mM),NF-kB SEAP reporter activity,[3]; agonist: LPS (TLR4) 0.1 ug/mL,0.262
same,NF-kB SEAP reporter activity,[3]; [4],0.309
same,NF-kB SEAP reporter activity,[3]; [5],0.121
same,NF-kB SEAP reporter activity,[3]; [6],0.148
